Measurements: patent publication US20220226341A1, “Pharmaceutical Composition for Alzheimer's Disease” (Kyoto University, priority 2019, published 2022)
This continues a long series; more values of the same kind are listed elsewhere.

Assay: Tissue distribution of radioactivity after single intravenous administration of 14C-labeled Compound 1 (blood-brain barrier penetration)
Assay type: in vivo
Conditions: rats, single iv 5 mg/kg 14C-labeled, n = 3
Description: [Testing the Penetration of the Compound Through the Blood-Brain Barrier]
Brain permeability (intracerebral transferability) of Compound 1 was evaluated.
^14C-labeled Compound 1 was intravenously administered once in a dose of 5 mg/kg (3.52 MBq/kg) to rats, and histological distribution (biodistribution) thereof was studied.

SMILES: Fc1ccc(N2CCCCC2)c(NC(=S)c2ccncc2)c1 [Compound 1]
- Radioactivity concentration (Blood, 5 min): 2064.57 ng eq. of Compound 1/g or mL
- Radioactivity concentration (Blood, 6 h): 959.54 ng eq. of Compound 1/g or mL
- Radioactivity concentration (Blood, 24 h): 109.67 ng eq. of Compound 1/g or mL
- Radioactivity concentration (Blood, 72 h): 12.94 ng eq. of Compound 1/g or mL
- Radioactivity concentration (Cecum, 24 h): 559.36 ng eq. of Compound 1/g or mL
- Radioactivity concentration (Cecum, 72 h): 17.15 ng eq. of Compound 1/g or mL
- Radioactivity concentration (Cerebellum, 5 min): 12499.69 ng eq. of Compound 1/g or mL
- Radioactivity concentration (Cerebellum, 6 h): 905.96 ng eq. of Compound 1/g or mL
- Radioactivity concentration (Cerebellum, 24 h): 102.6 ng eq. of Compound 1/g or mL
- Radioactivity concentration (Cerebellum, 72 h): 12.62 ng eq. of Compound 1/g or mL
- Radioactivity concentration (Cerebrum, 5 min): 12122.17 ng eq. of Compound 1/g or mL
- Radioactivity concentration (Cerebrum, 6 h): 853.47 ng eq. of Compound 1/g or mL
- Radioactivity concentration (Cerebrum, 24 h): 89.01 ng eq. of Compound 1/g or mL
- Radioactivity concentration (Cerebrum, 72 h): 7.26 ng eq. of Compound 1/g or mL
- Radioactivity concentration (Large intestine, 5 min): 5132.52 ng eq. of Compound 1/g or mL
- Radioactivity concentration (Large intestine, 6 h): 2429.43 ng eq. of Compound 1/g or mL
- Radioactivity concentration (Large intestine, 24 h): 388.61 ng eq. of Compound 1/g or mL
- Radioactivity concentration (Large intestine, 72 h): 9.66 ng eq. of Compound 1/g or mL
- Radioactivity concentration (Pituitary gland, 5 min): 10215.59 ng eq. of Compound 1/g or mL
- Radioactivity concentration (Pituitary gland, 6 h): 849.11 ng eq. of Compound 1/g or mL
- Radioactivity concentration (Pituitary gland, 24 h): 66.5 ng eq. of Compound 1/g or mL
- Radioactivity concentration (Plasma, 5 min): 2644.34 ng eq. of Compound 1/g or mL
- Radioactivity concentration (Plasma, 6 h): 1132.96 ng eq. of Compound 1/g or mL
- Radioactivity concentration (Plasma, 24 h): 121.88 ng eq. of Compound 1/g or mL
- Radioactivity concentration (Plasma, 72 h): 8.73 ng eq. of Compound 1/g or mL
- Radioactivity concentration (Plasma, 168 h): 3.46 ng eq. of Compound 1/g or mL
- Radioactivity concentration (Urinary bladder, 5 min): 2474.13 ng eq. of Compound 1/g or mL
- Radioactivity concentration (Urinary bladder, 6 h): 7563.63 ng eq. of Compound 1/g or mL
- Radioactivity concentration (Urinary bladder, 24 h): 356.22 ng eq. of Compound 1/g or mL
- Radioactivity concentration (Urinary bladder, 72 h): 19.22 ng eq. of Compound 1/g or mL
